This note sets out measurements from patent publication US12583836B2 (Anaxis Pharma Pty Ltd, priority 2020, dated 2026).

A value given as a limit tells only on which side of the number the result lay.

As usually defined, the IC50 is the concentration at which inhibition is half-maximal.

The test system of one assay is U937 cells. The assay is described as follows: Counter screen: cell viability without the TSQ cocktail (CelltiterGlo). The arrangement: species or system human. Particulars: Homo sapiens, U-937, cell viability by CelltiterGlo, read-out: Off-target effect (IC50 cell-based assay). The method, then: Counter screen: In parallel, all compounds were tested for their ability to affect cell viability. The same U937 cells were treated with compound in DMSO without the TSQ cocktail. This counter screen enabled evaluation of off-target effects. In this case, cell viability was measured by CelltiterGlo.

Assay [1] deals with U937 human histiocytic leukemia cell line. The assay is described as follows: Inhibition of TSQ induced necroptosis, 384 well plate format (CellTitre-Glo). Particulars: Homo sapiens, U-937; U937 cells, TSQ cocktail (TNF, Smac mimetic, Q-VD-OPh), CelltiterGlo; read-out: Inhibition of TSQ-induced necroptosis (IC50 cell-based assay). The method, then:
[…] ASSAY: Screening compounds for inhibition of TSQ induced necroptosis, 384 well plate format.
Cell Line ID: U937 human histiocytic leukemia cell line.
Cell Concentration (cells/well): Final cell density is 20000 cells per well.
Cell growth medium: HT-RPMI medium+7.4% Fetal Bovine Serum (FBS). Cells are cultured in Corning 150 cm^2 tissue culture flasks with vented caps at 37° C./5% CO2.
Incubation: Plates were incubated at 37° C./5% CO2 in a humidified incubator for 48 hours following addition of compounds and death stimuli (TSQ cocktail).
Compound concentration: 36 μM starting concentration, 1:3 dilution, 10 point
DMSO final concentration (% v/v): 0.3%.
Compounds in TSQ cocktail (T: TNF; S: Smac mimetic; Q: Q-VD-OPh) and their final concentrations:
hTNF-Fc (100 ng/ml)—produced by standard procedures as shown in Bossen et al., J Biol Chem, 2006, 281(20), 13964-13971.
Compound A (500 nM)—Smac mimetic, Tetralogic and SYNthesis med chem
Q-VD-OPh (10 μM)—MP Biomedicals
The cellular assay was carried out according to the following steps: • 1. Each well was prepared by sequential addition of: • a. DMSO (control; columns 1-2 and 23-24) or compound in DMSO—addition was performed using acoustic transfer of nl volumes of stock compound to give final test concentrations of 36, 12, 4, 1.3, 0.44, 0.148, 0.049, 0.016, 0.005 and 0.002 μM. All wells were backfilled with DMSO to a final total volume in the well of 100 nl. • b. Following compound/DMSO addition in step (a), 40 μL of cell suspension (5×10^5 cells/mL) was added to provide a final cell concentration of 20,000 cells per well, and • c. Following cell addition in step (b), 10 μL of 5×TSQ cocktail (except to positive controls; columns 1 and 23) was added to each well. • 2. After 48 hours, plate was removed from the 37° C. incubator and equilibrated to room temperature for 45 minutes. • 3. 15 μL of room temperature CellTitre-Glo2™ (Promega™) was added to each well. • 4. Shook plates for 2 minutes (˜600 rpm) and incubated at room temperature for 15 minutes to allow signal to stabilise. • 5. Read luminescence readout on a plate reader. Analysis:
Percent viability was calculated for each compound according to equation (2):
[formula] • wherein • RawData is the readout of any cell containing a compound of the invention • TA is the total activity provided by the luminescence readout from DMSO only wells (columns 2 and 24)=100% viability • NSA is the non-specific activity provided by DMSO+TSQ wells (columns 1 and 23)=0% viability
Curve fitting: 10-point titration curves are fitted with the 4-parameter logistic nonlinear regression model and the IC50 reported is the inflection point of the curve.
Analysis: Data was loaded into Dotmatics™ and visualised using the Tibco® Spotfire™ software. 10 points titration curves were fitted with the 4-parameter logistic nonlinear regression model and the IC50 reported reflect the inflection point of the curve for curve fitting.
Assay involving the TSQ cocktail (T: TNF; S: Smac mimetic; Q: Q-VD-OPh): TSQ treatment ensures that cells specifically undergo necroptotic cell death. TNF activates the TNF receptor, Smac mimetic directs the signal away from proinflammatory signaling and toward the RIP1/RIP3-mediated cell death pathways, and Q-VD-OPh ensures that the apoptotic response is blocked leaving only the programmed necrosis response. The compounds' activity (solution in DMSO) tested in this TSQ-induced assay was evaluated by determining the number of viable cells in culture by measuring the amount of ATP present as measured by CelltiterGlo.

`COCC(Oc1cc(-c2n[nH]c(Nc3cc(C)on3)c2C(N)=O)ccc1NS(=O)(=O)C(F)F)c1ccc(F)cc1` (racemic) [Compound 298, 3-(4-((difluoromethyl)sulfonamido)-3-(1-(4-fluorophenyl)-2-methoxyethoxy)phenyl)-5-((5-methylisoxazol-3-yl)amino)-1H-pyrazole-4-carboxamide]: the IC50 in the assay on U937 cells is above 30 µM.
Turning to `C[C@H](Oc1cc(-c2n[nH]c(Nc3cnccn3)c2C(N)=O)ccc1NS(=O)(=O)C(F)F)c1ncco1` (single isomer, unassigned) [Compound 279], the IC50 in the assay with U937 cells is above 30 µM; in assay [1], 0.01 to 1 µM.
As to `COC[C@H](Oc1cc(-c2n[nH]c(Nc3cc(C)on3)c2C(N)=O)ccc1NS(=O)(=O)C(F)F)c1ccc(F)cc1` (single isomer, unassigned) [Compound 299], the IC50 with U937 cells was above 30 µM; in assay [1], below 0.01 µM.
Take `CCS(=O)(=O)Nc1ccc(-c2n[nH]c(Nc3cnccn3)c2C(N)=O)cc1OCCc1ccc(F)cc1` [Compound 24]: the half-inhibitory concentration (IC50) was above 30 µM with U937 cells and 1 to 30 µM in assay [1].
Consider `CCS(=O)(=O)Nc1ccc(-c2n[nH]c(Nc3ccccn3)c2C(N)=O)cc1OCc1ccc(Cl)cc1` [Compound 39, 3-(3-((4-chlorobenzyl)oxy)-4-(ethylsulfonamido)phenyl)-5-(pyridin-2-ylamino)-1H-pyrazole-4-carboxamide], for which the IC50 in the assay with U937 cells was above 30 µM; in assay [1], 1 to 30 µM.
On to `CCS(=O)(=O)Nc1ccc(-c2n[nH]c(Nc3cnccn3)c2C(N)=O)cc1OCc1ccc(F)cc1` [Compound 62, 3-(4-(ethylsulfonamido)-3-((4-fluorobenzyl)oxy)phenyl) 5-(pyrazin-2-ylamino)-1H pyrazole-4-carboxamide], for which the figures for the IC50 (in the assay with U937 cells; in assay [1]) were above 30 µM and 0.01 to 1 µM, respectively.
With `NC(=O)c1c(-c2ccc(NS(=O)(=O)C3CC3)cc2)n[nH]c1Nc1cnccn1` [Compound 68, 3-(4-(cyclopropanesulfonamido)phenyl)-5-(pyrazin-2-ylamino)-1H-pyrazole-4-carboxamide], the IC50 in the assay with U937 cells was above 30 µM; in assay [1], 1 to 30 µM.
The matching figures for `CCS(=O)(=O)Nc1ccc(-c2n[nH]c(Nc3ccc(OC)cn3)c2C(N)=O)cc1` [Compound 88, 3-(4-(ethylsulfonamido)phenyl)-5-((5-methoxypyridin-2-yl)amino)-1H-pyrazole-4-carboxamide]: above 30 µM and 1 to 30 µM.
For `CCS(=O)(=O)Nc1ccc(-c2n[nH]c(Nc3cccc(C(F)F)n3)c2C(N)=O)cc1` [Compound 92, 5-((6-(difluoromethyl)pyridin-2-yl)amino)-3-(4-(ethylsulfonamido)phenyl)-1H-pyrazole-4-carboxamide], the IC50 with U937 cells is above 30 µM; in assay [1] it was 1 to 30 µM.
As to `C[C@H](Oc1cc(-c2n[nH]c(Nc3ccccn3)c2C(N)=O)ccc1NS(=O)(=O)CC(F)(F)F)c1ccc(F)cc1` [Compound 154, (S)-3-(3-(1-(4-fluorophenyl)ethoxy)-4-((2,2,2-trifluoroethyl)sulfonamido)phenyl)-5-(pyridine-2-ylamino)-1H-pyrazole-4-carboxamide], the 50% inhibitory concentration (IC50) with U937 cells lay in the range of 1 to 30 µM; in assay [1] it was 0.01 to 1 µM.
Regarding `Cc1cnc(Nc2[nH]nc(-c3ccc(NS(=O)(=O)CC(F)(F)F)c(OCc4ccc(F)c(Cl)c4)c3)c2C(N)=O)cn1` [Compound 155, 3-(3-((3-chloro-4-fluorobenzyl)oxy)-4-((2,2,2-trifluoroethyl)sulfonamido)phenyl)-5-((5-methylpyrazin-2-yl)amino)-1H-pyrazole-4-carboxamide], the IC50 lay in the range of 1 to 30 µM in the assay on U937 cells and 0.01 to 1 µM in assay [1].
`CCS(=O)(=O)Nc1ccc(-c2n[nH]c(Nc3cnccn3)c2C(N)=O)cc1OCc1ccc(F)cn1` [Compound 156, 3-(4-(ethylsulfonamido)-3-((5-fluoropyridin-2-yl)methoxy)phenyl)-5-(pyrazin-2-ylamino)-1H-pyrazole-4-carboxamide]: the IC50 is above 30 µM with U937 cells and 1 to 30 µM in assay [1].
The matching figures for `COc1cnc(Nc2[nH]nc(-c3ccc(NS(=O)(=O)CC(F)(F)F)c(OCc4ccc(Cl)cc4)c3)c2C(N)=O)cn1` [Compound 157, 3-(3-((4-chlorobenzyl)oxy)-4-((2,2,2-trifluoroethyl)sulfonamido)phenyl)-5-((5-methoxypyrazin-2-yl)amino)-1H-pyrazole-4-carboxamide]: above 30 µM and 0.01 to 1 µM.
Turning to `CCS(=O)(=O)Nc1ccc(-c2n[nH]c(Nc3cnc(C4CC4)cn3)c2C(N)=O)cc1` [Compound 158, 5-((5-cyclopropylpyrazin-2-yl)amino)-3-(4-(ethylsulfonamido)phenyl)-1H-pyrazole-4-carboxamide], the IC50 with U937 cells was above 30 µM; in assay [1], 1 to 30 µM.
`NC(=O)c1c(-c2ccc(NS(=O)(=O)CC(F)(F)F)c(OCc3ccc(F)c(F)c3)c2)n[nH]c1Nc1ccccn1` [Compound 160, 3-(3-((3,4-difluorobenzyl)oxy)-4-((2,2,2-trifluoroethyl)sulfonamido)phenyl)-5-(pyridine-2-ylamino)-1H-pyrazole-4-carboxamide]: the IC50 with U937 cells was above 30 µM; in assay [1], 1 to 30 µM.
For the compound `NC(=O)c1c(-c2ccc(NS(=O)(=O)CC(F)(F)F)c(OCc3ccc(Cl)c(F)c3)c2)n[nH]c1Nc1cnccn1` [Compound 165, 3-(3-((4-chloro-3-fluorobenzyl)oxy)-4-((2,2,2-trifluoroethyl)sulfonamido)phenyl)-5-(pyrazin-2-ylamino)-1H-pyrazole-4-carboxamide], the IC50 with U937 cells was above 30 µM; in assay [1], below 0.01 µM.
As for `NC(=O)c1c(-c2ccc(NS(=O)(=O)CC(F)(F)F)c(OCc3ccc(F)c(F)c3)c2)n[nH]c1Nc1cnccn1` [Compound 175, 3-(3-((3,4-difluorobenzyl)oxy)-4-((2,2,2-trifluoroethyl)sulfonamido)phenyl)-5-(pyrazin-2-ylamino)-1H-pyrazole-4-carboxamide], the IC50 in the assay on U937 cells was above 30 µM; in assay [1], below 0.01 µM.
On to `CCS(=O)(=O)Nc1ccc(-c2n[nH]c(Nc3cnc(C(C)(C)C)cn3)c2C(N)=O)cc1` [Compound 181, 5-((5-(tert-butyl)pyrazin-2-yl)amino)-3-(4-(ethylsulfonamido)phenyl)-1H-pyrazole-4-carboxamide], for which the IC50 with U937 cells is above 30 µM; in assay [1], 1 to 30 µM.
Regarding `NC(=O)c1c(-c2ccc(NS(=O)(=O)C(F)F)c(OCc3ccc(F)cc3)c2)n[nH]c1Nc1ccc(C(F)(F)F)nc1` [Compound 188, 3-(4-((difluoromethyl)sulfonamido)-3-((4-fluorobenzyl)oxy)phenyl)-5-((6-(trifluoromethyl)pyridine-3-yl)amino)-1H-pyrazole-4-carboxamide], the IC50 in the assay on U937 cells is above 30 µM; in assay [1] it was 0.01 to 1 µM.
As for `COc1cnc(Nc2[nH]nc(-c3ccc(NS(=O)(=O)C(F)F)c(OCc4ccc(Cl)cc4)c3)c2C(N)=O)cn1` [Compound 190, 3-(3-((4-chlorobenzyl)oxy)-4-((difluoromethyl)sulfonamido)phenyl)-5-((5-methoxypyrazin-2-yl)amino)-1H-pyrazole-4-carboxamide], the IC50 was above 30 µM in the assay with U937 cells and 0.01 to 1 µM in assay [1].
